# According to PubChem BioAssay (NCATS):
# Where “and” joins values, the source holds several entries; their conditions need not be identical. Equal values may be shown once. The shares of active, inactive and inconclusive entries below differ from those in the screen. For part of these data: A potency beside an inconclusive call is a rough fit, not a confirmed value. For part of these data: A note “side channel” means that the fit belongs to a control or component signal, not to the main read-out. Calls of active or inactive are those of the source. Unless noted, the call rests on the fitted dose curve; in most records, active means well fitted curve in the direction sought with a large enough effect; inconclusive means small, poorly fitted or top-dose-only effect, or another doubt; inactive means no such curve, though single readings can be large; an effect the other way counts as inactive or inconclusive.
# What was measured:
# [1] = target: Ubiquitin carboxyl-terminal hydrolase 1 (Homo sapiens) (UniProt O94782); test: Inhibitors of USP1/UAF1: Pilot qHTS (AID 504865); further: potency means the concentration at half of the fitted maximal effect;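 further: rhodamine fluorescence freed from ubiquitin-rhodamine substrate followed over time; nearly all actives have a fitted effect of over 35% in size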; on activity change, negative = inhibition: top concentration of the series differs between compounds; on the % scale 0 is the no-effect control and ±100 the full control effect
# In short: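 Enzyme-free wells gave the negative control, while test wells held 1nM USP1/UAF1 preincubated with compound for 15 min at room temperature. Ub-Rho at 150nM final started the reaction, and fluorescence at 480/540 nm was recorded kinetically.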
# [2] = qHTS for Inhibitors of the vitamin D receptor (VDR): Hit Validation using a Texas Red Assay (AID 602201); further: potency means the concentration at half of the fitted maximal effect
# In short: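 Fluorescence polarization (Ex 595/Em 615 nm) of Texas Red (7 nM) with 1.5 uM VDR-LBD and LG19078 (final concentrations). Compounds were incubated for 2 hours at room temperature.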
# [3] = target: Vitamin D3 receptor (Homo sapiens) (UniProt P11473); test: qHTS for Inhibitors of the vitamin D receptor (VDR): Hit Validation using a Beta-Lactamase Assay (AID 602202); further: on the % scale 0 is the no-effect control and ±100 the full control effect
# In short: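 Stably transfected HEK293 cells express a VDR–GAL4 DNA-binding-domain fusion driving a UAS beta-lactamase reporter, stimulated by agonist LG190178. Compounds were added 4 h after plating and incubated 18 h. A FRET beta-lactam substrate was then added for 2 h and cleaved substrate emission read at 447 nm.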
# [4] = target: Cytochrome P450 3A4 (Homo sapiens) (UniProt P08684); test: qHTS Assay for Inhibitors and Substrates of Cytochrome P450 3A4 (AID 884); further: potency means the concentration at half of the fitted maximal effect; nearly all actives have a fitted effect of over 50% in size
# In short: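 20 nM human CYP3A4 with 25 uM Luciferin-PPXE (at KM) in 200 mM KPO4, preincubated 10 min with compound; NADPH regeneration started a 60 min RT reaction. Luciferin detected by luminescence, normalized to 57 uM ketoconazole as full inhibition.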
# [5] = qHTS Assay for Identification of Small Molecule Agonists for Hypoxia Response Element Signaling Pathway (AID 914; active means well fitted activation curve with a large enough effect in the signal ratio, with a control signal flat, not every such curve was filed as active; inconclusive means small, poorly fitted or top-dose-only effect, or effect the other way, or a change in a side signal; the % refers to the signal ratio; further: potency means the concentration at half of the fitted maximal effect); conditions: ME-180 (cervical carcinoma) HRE-bla reporter, beta-lactamase ratio, CoCl2, 17 h; activation: hits give high values
# In short: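 HRE-bla ME-180 assay for agonist-like enhancement of an EC50 CoCl2 stimulus: 17 h at 37 degrees Celsius, CCF4 for 2.5 h, ratiometric 460/530 nm signal converted to %Activity and fitted to AC50.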
# [6] = target: 3',5'-cyclic-AMP phosphodiesterase 4B (Homo sapiens) (UniProt Q07343); test: qHTS Assay for Inhibitors of PDE-IV (AID 607; active means well fitted activation curve with a large enough effect in the main read-out, with a control signal flat, not every such curve was filed as active; inconclusive means small, poorly fitted or top-dose-only effect, or effect the other way, or a change in a side signal; further: potency means the concentration at half of the fitted maximal effect); conditions: HEK293 ACTOne CNG channel cells, membrane potential fluorescence; activation (PDE inhibition): at 22.9 µM (top of the series)
# In short: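 ACTOne HEK293 cells carry a modified cAMP-gated CNG channel and express endogenous PDE4; plated 1000 cells/well, compounds up to 22.9 uM final. Membrane-potential dye fluorescence (ex 535/em 590) was read; parental cells received 10 uM forskolin + 100 uM RO 20-1724.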
# [7] = Confirmation and Secondary Assay for Modulators of Hemoglobin Beta Chain Splicing at IVS2 705 locus (AID 930); conditions: HeLa EGFP-705 splicing reporter, GFP fluorescence, 48 h;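 further: GFP fluorescence per well restored by corrected splicing of the IVS2-705 intron in EGFP; potency means the concentration at half of the fitted maximal effect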
# In short: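 HeLa IVS2-705 EGFP reporter cells, 500/well, compound 2 d at 37C; correct splicing yields fluorescent EGFP. Control: 500 nM antisense PNA. Read-out: total peak GFP intensity.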
# [8] = target: Mitogen-activated protein kinase 10 (Mus musculus) (UniProt Q61831); test: JNK3 AlphaScreen Assay (AID 530; active means well fitted curve in either direction with a large enough effect, not every such curve was filed as active; inconclusive means small, poorly fitted or top-dose-only effect, or another doubt;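 further: kinase came from lysate of stimulated human HepG2 cells; signal reports phosphorylation of biotinylated GST-cJun 1-79 at Ser73 with 10 µM ATP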; further: potency means the concentration at half of the fitted maximal effect); conditions: JNK3 lysate, c-Jun phosphorylation; activity change, negative = inhibition: at 57.1 µM (top of the series)
# In short: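 JNK3 came from HepG2 lysates pre-activated with IL-1beta and TNF-alpha and phosphorylated biotinylated GST-cJun (1-79) at 10 uM ATP, pH 7.6, room temperature. Compounds were titrated. AlphaScreen signal used anti-phospho-cJun (Ser73) antibody.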
# [9] = MultiTox-Fluor Cytotoxicity Assay - LYMP1-002 - Dead Cells (AID 960); conditions: LYMP1-002 lymphoblastoid cells, dead-cell protease fluorescence; cytotoxicity (dead cells): at 46.1 µM (top of the series);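 further: 0% = DMSO and 100% = tetraoctylammonium bromide; nearly all actives have a fitted effect of over 60% in size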
# In short: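 Human lymphoblastoid cells (LYMP1-002), 2500/well in complete medium, were exposed to compounds for 16 hr at 37 C. Dead-cell protease activity was read as bis-AAF-R110 fluorescence (Ex/Em 485/520), normalized to DMSO and 15 uM tetraoctylammonium bromide; AC50 from Hill fits.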
# [10] = Cell Viability - LYMP2-004 (AID 966); conditions: LYMP2-004 lymphoblastoid cell viability, qHTS; activity change, negative = cytotoxicity: at 92.2 µM (top of the series); further: potency means the concentration at half of the fitted maximal effect; nearly all actives have a fitted effect of over 65% in size
# In short: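 Human lymphoblastoid cells (2500/well) in complete medium were treated with compounds for 24 hr at 37 C, then intracellular ATP was measured by CellTiter-Glo luminescence. AC50 values came from Hill-equation fits of concentration-response data.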
# [11] = Cell Viability - LYMP2-023 (AID 975);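 further: cellular ATP measured by luciferase luminescence as viability proxy; plate controls were DMSO only for no effect and 92 µM tetraoctylammonium bromide control for full effect; nearly all actives have a fitted effect of over 55% in size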
# In short: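 Human lymphoblastoid cells (2500/well) were preincubated 5 hr at 37 C, then exposed to compounds for 24 hr at 37 C in complete medium. Cellular ATP was read by CellTiter-Glo luminescence, and AC50 came from Hill-equation fits.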
# [12] = target: Peroxisome proliferator-activated receptor gamma (Homo sapiens) (UniProt P37231); test: qHTS assay for small molecule antagonists of peroxisome proliferator-activated receptor gamma signaling (AID 588537; active means well fitted inhibition curve with a large enough effect in the signal ratio, with a control signal flat, not every such curve was filed as active; inconclusive means small, poorly fitted or top-dose-only effect, or effect the other way, or a change in a side signal; the % refers to the signal ratio;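 further: reporter cells co-stimulated with 50 nM rosiglitazone agonist during compound treatment; % of control where 0% means no effect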); conditions: HEK293 PPARg-UAS-bla, beta-lactamase ratio, antagonist mode; activity, negative = inhibition: at 76.8 µM (top of the series)
# In short: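 PPAR-gamma-UAS-bla HEK293 cells (3000/well, 1% charcoal/dextran-stripped FBS) were preincubated 6-6.5 h at 37 C, given titrated compounds, then stimulated with 50 nM rosiglitazone for 16 h. Beta-lactamase activity was read with CCF4 dye; IC50 came from Hill fits.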
# [13] = qHTS assay for small molecule agonists of the antioxidant response element (ARE) signaling pathway (AID 651741; active means well fitted activation curve with a large enough effect in the signal ratio; inconclusive means small, poorly fitted or top-dose-only effect, or effect the other way, or a change in a side signal; the % refers to the signal ratio; further: % of control where 0% means no effect); conditions: HepG2 ARE-bla reporter, beta-lactamase FRET ratio, 16 h; activation: at 96 µM (top of the series) unless noted
# In short: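 ARE-bla HepG2 cells (beta-lactamase reporter under ARE control) were plated at 2,000 cells/well, preincubated 5 h at 37 C/5% CO2, then treated with DMSO-dissolved compounds for 16 h at 37 C; LiveBLAzer B/G FRET substrate added, fluorescence read after 2 h at room temperature.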
# [14] = qHTS assay for small molecule activators of the p53 signaling pathway (AID 651743; active means well fitted activation curve with a large enough effect in the signal ratio, not every such curve was filed as active; inconclusive means small, poorly fitted or top-dose-only effect, or a change in a side signal; the % refers to the signal ratio; further: % of control where 0% means no effect); conditions: HCT-116 p53RE-bla, beta-lactamase FRET ratio, 16 h; activation: hits give high values
# In short: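 p53RE-bla HCT-116 cells with a stably integrated beta-lactamase reporter under p53 response elements were plated, rested 5 hours at 37 C/5% CO2, then exposed to compounds in DMSO for 16 hours at 37 C. LiveBLAzer B/G FRET substrate was read after 2 hours at room temperature.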
# [15] = qHTS assay to identify small molecules that stimulate interleukin-8 (IL-8) secretion (AID 651758; active means well fitted activation curve with a large enough effect in the signal ratio; inconclusive means small, poorly fitted or top-dose-only effect, or effect the other way, or a change in a side signal; the % refers to the signal ratio; further: 0% is about no effect); conditions: HTRF ratio (665/615); activation: at 92.2 µM (top of the series)
# In short: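 THP-1, 2000 cells/well; cpd 16 h, 37 C; add cryptate + XL665 anti-IL-8 Abs; RT 1-3 h; TR-FRET read.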
# [16] = target: Nuclear receptor ROR-gamma (Homo sapiens) (UniProt P51449); test: qHTS assay for small molecule antagonists of the retinoid-related orphan receptor gamma (ROR-gamma) signaling pathway (AID 651802); further: on the % scale 0 is the no-effect control and ±100 the full control effect; nearly all actives have a fitted effect of over 60% in size
# In short: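 CHO cells carrying TET-inducible ROR-gamma and an ROR response element–luciferase reporter were exposed to compound, then induced with doxycycline. After 16hr at 37C, luminescence was read; lower signal indicates antagonism.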
# [17] = target: Androgen receptor (Homo sapiens) (UniProt P10275); test: qHTS assay for small molecule antagonists of androgen receptor signaling (AID 588516; active means well fitted curve in the direction sought with a large enough effect in the signal ratio, with a control signal flat, not every such curve was filed as active; inconclusive means small, poorly fitted or top-dose-only effect, or effect the other way, or a change in a side signal; inactive means no such curve, though single readings can be large or run the other way; the % refers to the signal ratio; further: on the % scale 0 is the no-effect control and ±100 the full control effect); conditions: AR-UAS-bla HEK293, beta-lactamase ratio, antagonist mode, 16 h; activity change, negative = inhibition: at 76.8 µM (top of the series)
# In short: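 Antagonist-mode qHTS: inhibition of R1881 (10 nM)-driven beta-lactamase expression in GripTite HEK 293 cells is measured after 16 h; values are Hill-derived IC50s normalized between R1881 and DMSO wells.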
# [18] = target: Thyroid hormone receptor beta (Homo sapiens) (UniProt P10828); test: qHTS assay for small molecule antagonists of thyroid hormone receptor beta signaling (AID 588547; active means well fitted inhibition curve with a large enough effect in the signal ratio, with a control signal flat, not every such curve was filed as active; inconclusive means small, poorly fitted or top-dose-only effect, or effect the other way, or a change in a side signal; the % refers to the signal ratio;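 further: cells stimulated with 0.4 nM T3 agonist during compound exposure; on the % scale 0 is the no-effect control and ±100 the full control effect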); conditions: TR-UAS-bla HEK293, beta-lactamase ratio, antagonist mode, 18 h
# In short: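 TR-UAS-bla GripTite HEK293 cells in 2% charcoal/dextran FBS medium were preincubated 4 h at 37 C, given compound (0.59 nM to 92 uM) plus 0.4 nM T3 (final) for 18 h, then CCF4 for 2 h at RT; Hill fit gave IC50.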
# [19] = qHTS assay for small molecule disruptors of the mitochondrial membrane potential - 1 hr assay (AID 651754; calls by dose curve; further: on the % scale 0 is the no-effect control and ±100 the full control effect; nearly all actives have a fitted effect of over 35% in size); conditions: ratio change, negative = depolarisation: at 92.2 µM (top of the series)
# In short: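 HepG2 cells, attached overnight at 37C, were exposed to compound or DMSO vehicle for 1 hr at 37C, 5% CO2, then stained with Mito-MPS dye for 30 min. Red aggregate versus green monomer fluorescence reports membrane potential.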
# Tags describe the fitted curve by direction and shape or compound fluorescence and quenching.
# Chain of UniProt O94782 (O94782 whole entry, looked up): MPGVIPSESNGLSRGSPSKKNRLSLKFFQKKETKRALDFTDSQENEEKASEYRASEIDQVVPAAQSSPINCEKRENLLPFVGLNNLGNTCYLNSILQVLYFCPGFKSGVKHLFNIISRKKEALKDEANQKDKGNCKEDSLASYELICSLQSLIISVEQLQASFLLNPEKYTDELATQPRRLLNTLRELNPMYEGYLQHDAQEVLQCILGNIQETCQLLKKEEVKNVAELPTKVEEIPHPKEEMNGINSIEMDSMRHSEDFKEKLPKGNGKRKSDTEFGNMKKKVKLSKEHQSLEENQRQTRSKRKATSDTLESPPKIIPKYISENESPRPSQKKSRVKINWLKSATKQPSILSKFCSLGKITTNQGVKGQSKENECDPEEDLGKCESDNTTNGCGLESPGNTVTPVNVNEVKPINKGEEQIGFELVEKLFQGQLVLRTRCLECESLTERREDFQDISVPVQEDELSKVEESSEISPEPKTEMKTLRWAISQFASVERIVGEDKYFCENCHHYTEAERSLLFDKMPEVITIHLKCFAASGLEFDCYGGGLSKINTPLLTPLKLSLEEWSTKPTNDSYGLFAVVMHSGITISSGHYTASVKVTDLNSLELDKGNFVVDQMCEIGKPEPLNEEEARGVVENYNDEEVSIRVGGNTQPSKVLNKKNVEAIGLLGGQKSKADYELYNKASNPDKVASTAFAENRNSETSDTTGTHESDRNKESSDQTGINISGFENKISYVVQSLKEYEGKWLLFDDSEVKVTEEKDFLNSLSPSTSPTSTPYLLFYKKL
# Chain of UniProt P08684 (P08684 whole entry, looked up): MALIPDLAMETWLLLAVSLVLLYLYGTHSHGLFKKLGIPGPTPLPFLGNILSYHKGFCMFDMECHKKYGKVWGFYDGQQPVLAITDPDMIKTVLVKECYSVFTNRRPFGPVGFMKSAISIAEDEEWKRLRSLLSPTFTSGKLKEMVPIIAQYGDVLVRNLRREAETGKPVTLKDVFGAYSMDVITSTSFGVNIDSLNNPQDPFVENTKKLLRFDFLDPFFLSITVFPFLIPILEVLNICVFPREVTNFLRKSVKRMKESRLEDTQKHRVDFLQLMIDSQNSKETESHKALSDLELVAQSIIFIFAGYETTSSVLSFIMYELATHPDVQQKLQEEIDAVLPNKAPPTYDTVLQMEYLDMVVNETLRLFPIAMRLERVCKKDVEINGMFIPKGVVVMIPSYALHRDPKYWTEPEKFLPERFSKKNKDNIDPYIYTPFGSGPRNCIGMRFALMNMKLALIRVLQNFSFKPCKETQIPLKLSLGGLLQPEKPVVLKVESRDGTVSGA
# Chain of UniProt Q07343 (Q07343 whole entry, looked up): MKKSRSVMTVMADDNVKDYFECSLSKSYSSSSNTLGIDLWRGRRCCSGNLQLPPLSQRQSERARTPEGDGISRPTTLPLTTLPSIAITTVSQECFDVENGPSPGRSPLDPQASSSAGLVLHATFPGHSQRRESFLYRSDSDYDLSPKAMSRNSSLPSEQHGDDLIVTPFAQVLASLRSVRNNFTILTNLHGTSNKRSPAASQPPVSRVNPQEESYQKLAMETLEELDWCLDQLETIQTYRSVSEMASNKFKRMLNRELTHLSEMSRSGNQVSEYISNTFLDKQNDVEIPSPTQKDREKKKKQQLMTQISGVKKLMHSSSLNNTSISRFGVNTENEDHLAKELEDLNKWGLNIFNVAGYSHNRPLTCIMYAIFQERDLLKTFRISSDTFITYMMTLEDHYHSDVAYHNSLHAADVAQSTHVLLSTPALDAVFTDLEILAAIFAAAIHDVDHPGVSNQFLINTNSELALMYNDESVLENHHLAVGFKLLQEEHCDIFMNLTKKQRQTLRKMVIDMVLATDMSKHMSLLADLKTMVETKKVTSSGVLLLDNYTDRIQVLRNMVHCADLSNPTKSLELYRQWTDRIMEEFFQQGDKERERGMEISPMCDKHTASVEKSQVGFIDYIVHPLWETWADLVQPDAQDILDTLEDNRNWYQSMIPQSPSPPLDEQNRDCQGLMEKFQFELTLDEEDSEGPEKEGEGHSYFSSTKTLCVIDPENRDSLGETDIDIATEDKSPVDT
# Chain of UniProt P10275 (P10275 whole entry, looked up): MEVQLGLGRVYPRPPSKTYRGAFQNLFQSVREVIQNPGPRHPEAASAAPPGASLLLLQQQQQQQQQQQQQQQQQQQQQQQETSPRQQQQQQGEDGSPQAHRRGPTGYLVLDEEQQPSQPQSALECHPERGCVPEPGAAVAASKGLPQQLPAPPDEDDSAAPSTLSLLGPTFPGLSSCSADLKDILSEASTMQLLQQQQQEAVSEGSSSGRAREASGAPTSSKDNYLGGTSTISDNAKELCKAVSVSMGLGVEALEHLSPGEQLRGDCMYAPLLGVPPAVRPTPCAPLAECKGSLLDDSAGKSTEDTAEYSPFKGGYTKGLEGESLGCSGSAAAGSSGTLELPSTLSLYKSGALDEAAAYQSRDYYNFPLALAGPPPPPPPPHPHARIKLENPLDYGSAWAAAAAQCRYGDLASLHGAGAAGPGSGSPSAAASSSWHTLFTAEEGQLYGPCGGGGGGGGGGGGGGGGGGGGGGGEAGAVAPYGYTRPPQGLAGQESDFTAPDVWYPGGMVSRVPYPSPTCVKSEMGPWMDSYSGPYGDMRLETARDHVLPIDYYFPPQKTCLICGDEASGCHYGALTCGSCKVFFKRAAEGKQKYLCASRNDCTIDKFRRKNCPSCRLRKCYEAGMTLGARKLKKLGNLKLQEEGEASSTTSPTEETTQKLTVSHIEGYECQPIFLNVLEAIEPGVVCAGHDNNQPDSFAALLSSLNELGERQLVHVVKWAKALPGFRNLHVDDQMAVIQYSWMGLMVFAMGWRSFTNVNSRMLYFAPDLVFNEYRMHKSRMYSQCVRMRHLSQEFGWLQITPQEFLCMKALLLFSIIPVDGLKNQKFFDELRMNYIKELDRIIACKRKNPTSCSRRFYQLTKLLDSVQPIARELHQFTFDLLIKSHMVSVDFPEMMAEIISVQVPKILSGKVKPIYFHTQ
# Chain of UniProt P51449 (P51449 whole entry, looked up): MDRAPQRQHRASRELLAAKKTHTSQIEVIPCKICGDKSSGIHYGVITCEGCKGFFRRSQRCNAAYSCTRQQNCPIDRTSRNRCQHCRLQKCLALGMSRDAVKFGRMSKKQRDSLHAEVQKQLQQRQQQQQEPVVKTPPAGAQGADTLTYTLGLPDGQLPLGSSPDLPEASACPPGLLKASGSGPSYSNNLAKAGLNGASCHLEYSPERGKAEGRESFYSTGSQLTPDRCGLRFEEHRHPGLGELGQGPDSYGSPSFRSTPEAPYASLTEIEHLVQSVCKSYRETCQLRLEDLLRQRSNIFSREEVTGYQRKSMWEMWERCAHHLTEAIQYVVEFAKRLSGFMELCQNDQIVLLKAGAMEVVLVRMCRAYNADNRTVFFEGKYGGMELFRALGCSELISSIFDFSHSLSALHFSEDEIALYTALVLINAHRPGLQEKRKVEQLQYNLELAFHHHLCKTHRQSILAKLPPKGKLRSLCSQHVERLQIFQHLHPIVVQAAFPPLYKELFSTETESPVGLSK
# Chain of UniProt P11473 (P11473 whole entry, looked up, the tested form may be a part): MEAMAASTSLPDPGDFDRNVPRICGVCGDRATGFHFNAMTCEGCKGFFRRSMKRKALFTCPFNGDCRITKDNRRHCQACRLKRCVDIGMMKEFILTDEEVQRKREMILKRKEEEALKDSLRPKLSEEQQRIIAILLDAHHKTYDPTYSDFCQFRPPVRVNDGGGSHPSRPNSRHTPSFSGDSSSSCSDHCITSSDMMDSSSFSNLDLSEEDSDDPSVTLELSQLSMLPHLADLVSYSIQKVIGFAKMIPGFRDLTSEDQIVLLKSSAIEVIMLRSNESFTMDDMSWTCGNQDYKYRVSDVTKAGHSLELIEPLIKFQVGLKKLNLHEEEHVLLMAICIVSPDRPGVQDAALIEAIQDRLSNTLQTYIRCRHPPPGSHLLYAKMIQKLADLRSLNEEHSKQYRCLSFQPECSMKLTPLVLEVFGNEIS
# Chain of UniProt P10828 (P10828 whole entry, looked up): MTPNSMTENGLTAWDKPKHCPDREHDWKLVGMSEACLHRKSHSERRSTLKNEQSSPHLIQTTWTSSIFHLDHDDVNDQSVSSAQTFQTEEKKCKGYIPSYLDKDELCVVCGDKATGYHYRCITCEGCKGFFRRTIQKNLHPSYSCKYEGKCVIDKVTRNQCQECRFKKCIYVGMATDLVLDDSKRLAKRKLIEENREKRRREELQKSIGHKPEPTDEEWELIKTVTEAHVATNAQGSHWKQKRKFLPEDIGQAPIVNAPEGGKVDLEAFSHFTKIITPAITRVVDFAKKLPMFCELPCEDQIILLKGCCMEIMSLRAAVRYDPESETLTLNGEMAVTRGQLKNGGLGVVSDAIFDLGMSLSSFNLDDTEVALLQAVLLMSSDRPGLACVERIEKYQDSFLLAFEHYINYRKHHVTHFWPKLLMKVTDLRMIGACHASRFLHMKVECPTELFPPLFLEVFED
compound,measurement,setting,value
CC1COC2=C1C(=O)C(=O)c1c2ccc2c1CCCC2(C)C (stereo not given),Potency,[1],active: 79.4 µM
same,Potency,[2],"inconclusive: 15.8 µM [inhibitor, partial curve, poor fit] [agonist-bound VDR ligand-binding domain]"
same,Potency,[3],inactive
CCN(CC)C(=O)N[C@@H]1C[C@H]2c3cccc4[nH]cc(c34)C[C@@H]2N(C)C1,Potency,[4],"inconclusive: 3.98 µM [inhibitor, full curve] and inconclusive: 6.31 µM [inhibitor, partial curve]"
same,Potency,[1],inactive
O=C1C=CC(=O)c2c1ccc1c2ccc2ccccc21,Potency,[5],"inconclusive: 7.94 µM [cytotoxic, side channel, partial curve]"
same,Potency,[1],"inconclusive: 35.5 µM [inhibitor, partial curve]"
Cn1cc(C(=O)C(=O)N[C@H]2CN3CCC2CC3)c2ccccc21,Potency,[6],"inconclusive: 3.01 µM [activator, partial curve, poor fit]"
same,Potency,[1],inactive
CC[C@]1(O)CC(O[C@@H]2CC(N(C)C)C(O)C(C)O2)c2c(cc3c(c2O)C(=O)c2c(O)cccc2C3=O)C1C(=O)OC (stereo not given in full),Potency,[7],"inconclusive: 31.6 µM [activator, single point]"
same,Potency,[1],active: 56.2 µM
CCOC(OCC)P(=O)(O)CCCN,Potency,[6],"inconclusive: 19 µM [inhibitor, single point]"
same,Potency,[1],inactive
C=C(C)c1ccccc1,Potency,[8],inactive
CC(C)C[C@H]1C(=O)N2CCC[C@@H]2[C@]2(O)O[C@](NC(=O)[C@H]3C=C4c5cccc6[nH]cc(c56)C[C@H]4N(C)C3)(C(C)C)C(=O)N12,Potency,[8],"inconclusive: 39.8 µM [inhibitor, partial curve, poor fit]"
O=[N+]([O-])c1ccccc1-c1ccccc1,Potency,[8],inactive
same,Potency,[9],inactive
same,Potency,[10],"inconclusive: 79.4 µM [rising, single point]"
same,Potency,[11],inactive
same,"activity, negative = inhibition",[12],inconclusive: 7.62%
same,Potency,[13],inactive
same,activation,[14],inactive: -1.36%
same,activation,[15],inconclusive: 8.08%
same,Potency,[16],inactive
O=c1ccc(=O)[nH][nH]1,Potency,[8],"inconclusive: 15.8 µM [activator, full curve, poor fit]"
same,"activity change, negative = inhibition",[17],inconclusive: 22.7%
same,activity change % (negative = inhibition),[18],inconclusive: -14.2%
same,activation,[13],inconclusive: 9.73%
same,"ratio change, negative = depolarisation",[19],inconclusive: 3.25%
same,activation,[15],inconclusive: -4.42%
